Source: the supplement of paper PMC3334620
Whole data set: some 33,000 sequences, median “E-score (-0.5 to 0.5)” near -0.056, cut for the highest 2% near 0.38. The list shows a part of the results.

molecular target: Stb4 (UniProt P50104); assay: PBM E-score (8-mer binding enrichment) (E-score (-0.5 to 0.5)); higher = stronger / more preferred TF binding; most listed sequences are background and not binding sites; conditions: protein concentration: 200 nM; construct: GST-DNA-binding domain
Protocol: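 Universal 'all 10-mer' protein binding microarrays (Agilent AMADID 015681) probed with GST-tagged S. cerevisiae TFs (full-length or DBD) made by in vitro transcription/translation (PURExpress), about 100-200 nM. Bound TF was detected with fluorescent anti-GST. Each ungapped 8-mer (which stands for itself and its reverse complement) is scored by the PBM enrichment score (E-score), a modified Wilcoxon-Mann-Whitney statistic from -0.5 to +0.5, computed with the Universal PBM Analysis Suite. Scale: above 0.35 generally sequence-specific binding.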

Sequence	PBM E-score
ACATACAC	-0.0366
AGGTATCC	0.22
AGGGACTA	-0.0886
ATGGTGAC	-0.268
AATTCCCG	0.355
AATGATGG	0.0527
CAGAACTC	-0.176
CGATAGGC	0.0444
CTTCATCA	-0.0729
CCCGGAGA	0.318
CGTGAAAA	-0.0298
GCTGACGA	-0.346
GCGTGCGA	-0.106
GTGCTGCA	-0.165
GGAGGAAA	0.0487
ATCAGGGC	-0.286
CATCCATA	-0.171
GGGTGTGA	0.0814
CCTCCGCA	-0.0298
ACAATCGG	0.306
GCATTGAC	-0.0748
CACAGGAA	-0.14
GCTAGCAC	-0.0526
TACCCATA	-0.224
ATGCTGGA	-0.174

Sequence	PBM E-score
AGACAAAA	-0.26
CACCGCAA	0.0924
GCTCCTCC	-0.252
GCACTCGC	-0.0313
AAGTGACA	-0.0376
GCAGCGGA	0.193
AATCTCAA	0.123
ACTTAGCA	-0.066
CCACCTCA	-0.0243
GGTGTTAC	0.0515
AACACGAC	-0.207
GAGCTTCC	0.188
AACATGGA	-0.133
GACCTGGC	-0.0471
GGGATAGA	-0.0799
GATGTGCC	0.102
AAGAAGAC	-0.122
GGACCGAC	0.276
CACAGTGG	-0.0386
CAGAATTC	-0.101
CCCGATCA	0.268
AACCCACA	-0.127
AGATAGCC	0.0814
CCCGACGC	0.318
ATCTTCTG	0.0164

Sequence	PBM E-score
CGCAGACC	-0.116
CGGCCCTC	-0.00371
GGGATCAC	-0.0541
AGTAACGG	0.103
CCGATAGC	0.28
AGGAGTAT	-0.156
CAAGGGGC	0.00314
TAATGACA	-0.00582
ACATCCGA	0.486
ACACAATG	-0.128
AAGACGCG	-0.0136
CGGTTCTC	0.174
CCGCTACG	0.0467
GAGGCACC	-0.0156
ACCTGTTG	-0.194
ATATTCAC	-0.141
GGCGTACA	-0.157
ACGACTTC	-0.0604
CCACGTCC	-0.161
CACTTATC	-0.114
CTGGGCAA	-0.228
ACTGGTAG	-0.226
CAATTTAA	-0.105
AAAATAGC	-0.0271
ACTTTTTC	-0.0229

Sequence	PBM E-score
CAGCCTCA	-0.157
CGATCGCG	0.134
CGTGTTGC	0.0451
AGTAACTG	-0.176
AGCAAACT	-0.0478
ACGGACAA	0.058
CATTCCCC	0.119
ACCATGTC	-0.0118
CGGTTTTA	0.197
CTGCTATA	0.0268
GCGTGACA	-0.0588
CCTAAGCA	-0.165
GAAATGCA	-0.0344
GCGCTGCC	-0.146
CAATCGAG	-0.232
CCGAATTC	0.398
GGTAATTA	0.26
GACATGAC	-0.149
CGACGGCA	0.182
AAGCTCTA	-0.166
ATCACGGG	0.0959
CGCTGGAA	0.0444
GGAAGTAA	0.258
CGCGCTGA	-0.108
AGCAGTCC	-0.137

Sequence	PBM E-score
GACATTCA	0.052
TTACTGAA	-0.122
GTACACGA	-0.0694
CCGTATGA	0.0582
ATAGATAC	0.0388
CAAAAGGG	-0.267
TCTGCTCA	-0.299
GAAAAGAC	0.0366
CGCCTTAC	-0.0919
GACAAATC	-0.00095
CTAAGACA	-0.0966
CCGGTTTC	0.259
GAAAAAAA	0.162
AGGCCCTG	-0.199
CCCCGACG	0.277
AACATGTG	-0.00801
CGGTGACA	0.163
CATAGCAC	-0.0999
CTAAACAG	-0.123
AACCCGCG	0.172
CTAAAGAG	-0.169
CTAGACGC	-0.226
CGTTACCA	-0.193
CTTATTTC	0.0623
ATTACTTA	0.0911

Sequence	PBM E-score
CCGTACCA	0.249
GTCATAAC	0.0465
CCGGTTTA	0.203
AGGCCAGA	-0.0213
CCACCGGG	0.178
CATTTAAA	0.0214
GAATCATA	-0.0546
AAAAGTGC	-0.106
CATCACTA	-0.115
AGTTTTTG	-0.00647
GATTTACA	0.0241
GCACCGAC	0.189
CACTACGA	-0.0972
GAAGCTGA	0.0871
GGATTAGA	0.0784
AGATAACG	0.093
GGCAGGAC	0.0678
GAACGACA	-0.0972
GCCTCCCA	-0.156
CACTGTAC	-0.168
CATAATGC	-0.00732
ACGTTGCT	-0.138
ACCGTTAC	-0.0808
GACGCCTC	-0.169
GGGAATTA	0.0702

Sequence	PBM E-score
CACTCTAA	-0.151
CATTATAG	-0.063
GCAGTTAC	-0.0397
CGAATGAC	0.277
GTAAAGAA	0.0948
CATTTAAG	-0.205
CGTAGCTC	-0.0298
AAGAAGGC	-0.183
TCGATTCA	-0.135
CCTCATCA	-0.175
ATCTCTCG	0.193
GTTACAGA	-0.199
ATACGAAT	-0.0803
CCCACGCC	-0.082
GCATAGCA	-0.129
AGGTGCAC	0.0308
AAGTTTAT	0.124
GACCTTGC	-0.00555
AGATCATA	-0.191
CCGCAAGA	0.151
ACAGAAAA	0.0774
AAACTCCT	-0.146
